From PubChem BioAssay AID686978 (National Center for Advancing Translational Sciences (NCATS), 2013)
Where “and” joins values, the source holds several entries; their conditions need not be identical. Equal entries are not always repeated. Out of some 420,000 compounds screened, about 64,000 (15%) were called active. This list was built around the results that the source calls inconclusive (neither active nor inactive); the mix of calls is not that of the screen. Calls follow the shape of the dose curve; as a rule, active = well fitted inhibition curve with a large enough effect; inconclusive = small, poorly fitted or top-dose-only effect; inactive = flat fitted curve, though single readings scatter. A potency beside an inconclusive call is a rough fit, not a confirmed value.
% is scaled to controls: 0 for no effect and ±100 for the full control effect; potency is read from the fitted curve at half-maximal effect; tags tell the direction and shape of the fitted curve.

Assay: qHTS for Inhibitors of human tyrosyl-DNA phosphodiesterase 1 (TDP1): qHTS in cells in absence of CPT; also: nearly all actives have a fitted effect of over 55% in size
Settings: DT40 Tdp1-/- hTDP1 cells, no CPT, ATP luminescence, 48 h; activity change, negative = growth inhibition: at 46.2 µM (top of the series)
In short: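 Compound effects on proliferation are scored in DT40 Tdp1-/-;hTDP1 cells in the absence of CPT. ATP levels (CellTiter-Glo luminescence) are recorded after a ≥48 hr, 37 °C incubation.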
With NC(=O)c1ccccc1NC(=O)c1ccc2ccccc2c1 the Potency was inconclusive: 23.1 µM [inhibitor, single point]. For COc1ccc([C@H]2CC(=O)C=C(c3cc4ccccc4c4ccccc34)C2)cc1, the Potency was inconclusive: 25.9 µM [inhibitor, single point]. For CCCCN(CCCNC(=O)CN1C(=O)COc2ccccc21)c1ccccc1, the Potency was inconclusive: 23.1 µM [inhibitor, single point]. For CCC1=CC(c2ccccc2)n2ncnc2N1 (stereo not given), the Potency was “inactive”. For COc1ccc(NS(=O)(=O)c2cccc(C(=O)NCC(c3ccc(OC)cc3)N3CCCC3)c2)cc1 (stereo not given), the Potency was inconclusive: 18.4 µM [inhibitor, single point]. In the case of CCc1cc2c(=O)c(-c3nc4ccccc4n3C)coc2c(CN2CCCC(C)C2)c1O (stereo not given), the Potency is reported as active: 9.2 µM. With CCOCCCNC(=S)N1CCCC(c2nc3ccc(C)cc3[nH]2)C1 (stereo not given) the Potency was inconclusive: 29.1 µM [inhibitor, single point]. In the case of CCCCSC1=N/C(=C/c2ccsc2)C(=O)N1c1ccccc1, the Potency is reported as inconclusive: 23.1 µM [inhibitor, single point]. With CC[C@]1(C(=O)OC)[C@H]2C(=O)N(Cc3ccccc3)C(=O)[C@H]2[C@H]2CN=C(SCC(=O)c3ccccc3)N21 the Potency was inconclusive: 29.1 µM [inhibitor, single point]. With CCOC(=O)CNC(=O)CSc1nc(-c2ccc(OC)cc2)ns1 the Potency was inconclusive: 29.1 µM [inhibitor, single point]. In the case of CCC/C(O)=C1\C(=O)CCCC1=NCCc1ccc(OCC)c(OCC)c1, the Potency is reported as inconclusive: 25.9 µM [inhibitor, single point]. For CN(C(=O)C1CCC(=O)N(Cc2cccc(F)c2)C1)C1CCCCC1 (stereo not given), the Potency was inconclusive: 18.4 µM [inhibitor, single point]. With NS(=O)(=O)c1ccc(CNC(=O)c2ccc(C(=O)c3ccccc3)cc2)cc1 the Potency was inconclusive: 14.6 µM [inhibitor, partial curve]. With CCOC(=O)C1(Cc2cccc(Cl)c2)CCCN(C(=O)c2ccc(C)nc2)C1 (stereo not given) the Potency was inconclusive: 29.1 µM [inhibitor, single point]. For Cc1cc(C)n(CC(=O)NNC(=O)c2ccc(OC(F)(F)F)cc2)n1, the Potency was “inactive”. With Cc1cc(C)c(C)c(S(=O)(=O)N(C)C2CCN(C)CC2)c1C the Potency was active: 16.4 µM. In the case of COc1ccccc1NS(=O)(=O)c1cc([N+](=O)[O-])ccc1N/N=C/c1c[nH]c2ccccc12, the Potency is reported as inconclusive: 18.4 µM [inhibitor, single point]. For O=C(NC1CCCC1)c1cc(-c2ccccc2)on1, the Potency was inconclusive: 11.6 µM [inhibitor, partial curve]. For c1ccc2c(N3CCOCC3)c3c(nc2c1)CCC3, the Potency was “inactive”. In the case of CN(CC(=O)Nc1cc(Cl)ccc1-n1cncn1)Cc1ccccc1N1CCOCC1, the Potency is reported as inconclusive: 16.4 µM [inhibitor, partial curve, poor fit]. For O=C(c1cccc(F)c1)N1CCC(c2c[nH]c3ccccc23)(c2c[nH]c3ccccc23)CC1, the Potency was inconclusive: 14.6 µM [inhibitor, partial curve, poor fit]. With CCc1ccc(NC(=O)c2ccc(F)c(S(=O)(=O)N(CC)c3ccccc3)c2)cc1 the Potency was active: 8.2 µM. In the case of COc1ccc(C(=O)Nc2nnc(S(=O)(=O)N3CCC(C)CC3)s2)cc1OC, the Potency is reported as inconclusive: 20.6 µM [inhibitor, single point]. In the case of C[C@@H]1C(c2ccc(F)cc2)=NN(c2ccc(Br)cc2)[C@H]1C(=O)N1CCOC1=O, the Potency is reported as active: 20.6 µM. With Cn1cccc1C(=O)Nc1ccc(Cl)c(S(=O)(=O)N2CCCCC2)c1 the Potency was inconclusive: 29.1 µM [inhibitor, single point]. For N#C/C(=C\c1ccncc1)c1nc2ccccc2[nH]1, the Potency was inconclusive: 10.3 µM [inhibitor, partial curve]. With Cc1cc(C=Nc2ccc(/C=C/c3ccnc4ccccc34)cc2)ccc1N(C)C the Potency was active: 17.8 µM. In the case of CC(C)c1ccc(-c2nnn(Cc3nc4ccccc4s3)n2)cc1, the Potency is reported as “inactive”. For CC1CCCN(C(=O)CSc2ncccn2)C1 (stereo not given), the Potency was “inactive”. In the case of CCCCn1c(N)c(NCC)c(=O)[nH]c1=O, the Potency is reported as active: 23.1 µM. For COc1ccc(C(=O)CNc2cccc(F)c2)cc1, the Potency was “inactive”. With COc1ccc(C/C(N)=N/OC(C)=O)cc1OC the Potency was inconclusive: 23.1 µM [inhibitor, single point]. For Clc1ccc(-n2ncc3c(N4CCCCCC4)ncnc32)cc1, the Potency was inconclusive: 20.6 µM [inhibitor, single point]. For Cc1ccc2nc(N3CCN(C(=O)CCC(=O)O)CC3)nc(-c3ccccc3)c2c1, the Potency was “inactive”. With COc1ccc(Cl)cc1NC(=O)CCCC(=O)c1ccccc1 the Potency was inconclusive: 18.4 µM [inhibitor, single point]. For O=C(NCC1CCCO1)c1c[nH]c2ccc(S(=O)(=O)Nc3ccc(F)cc3F)cc2c1=O (stereo not given), the Potency was “inactive”. For COc1ccc(CCNC(=O)COC(=O)/C=C/c2cc(OC)c(OC)c(OC)c2)cc1OC, the Potency was inconclusive: 20.6 µM [inhibitor, single point]. For O=C(c1cccs1)N1CCN(c2ncc(C(F)(F)F)cc2Cl)CC1, the Potency was inconclusive: 29.1 µM [inhibitor, single point]. With COc1ccc(C)cc1NC(=O)NCCCCc1ccccc1 the Potency was “inactive”. In the case of O=C(c1csnn1)N1CCC[C@@]2(CCN(Cc3cc(C(F)(F)F)cc(C(F)(F)F)c3)C2)C1, the Potency is reported as inconclusive: 20.6 µM [inhibitor, partial curve, poor fit]. In the case of COc1ccccc1NC(=O)CC(=O)c1cccc([N+](=O)[O-])c1, the Potency is reported as “inactive”. For CCn1c(=S)sc2c(=O)n(-c3ccccc3)c(=S)[nH]c21, the activity change, negative = growth inhibition was inconclusive: -31% [inhibitor]. In the case of CC(=O)C1=C(C)NC(=O)NC1c1ccc(OC2CCCC2)cc1 (stereo not given), the Potency is reported as “inactive”. For CCCCC(NC(=O)COc1cc2c(c3oc(=O)cc(C)c13)CCC(C)(C)O2)C(=O)O (stereo not given), the Potency was “inactive”. With Nc1nc(N)c2snnc2n1 the Potency was inconclusive: 0.631 µM [inhibitor, full curve, poor fit]. For CC1CCCCN1Cc1c(O)ccc2c(=O)c(-c3ccccc3)coc12 (stereo not given), the Potency was active: 10.3 µM. With O=CNc1cc(-c2ccc(C(=O)NC3CC3)cc2)cn2c(-c3ccc(F)c(Cl)c3)cnc12 the Potency was active: 13 µM. In the case of CCN(CC)S(=O)(=O)c1ccc(N2CCOCC2)c(NC(=O)c2cc3ccccc3o2)c1, the Potency is reported as inconclusive: 20.6 µM [inhibitor, single point]. For C#CCN(C(=O)c1cc(COc2ccc(C)c(C)c2)on1)C1CCCCC1, the Potency was active: 23.1 µM. In the case of O=c1c2sccc2nc(SCc2cc(=O)n3cc(Cl)ccc3n2)n1Cc1ccccn1, the Potency is reported as inconclusive: 29.1 µM [inhibitor, single point]. For Cc1ccc(OCC(=O)Nc2c(C)nn(-c3ccccc3)c2C)c(Br)c1, the Potency was active: 23.1 µM. In the case of COCCCNC(=O)Cn1c(=O)n(Cc2ccc(C(=O)NCCc3ccc(OC)c(OC)c3)cc2)c(=O)c2ccccc21, the activity change, negative = growth inhibition is reported as inconclusive: -34% [inhibitor]. For O=C(OCC(=O)N1N=C(c2ccc(Cl)cc2)CC1c1ccco1)c1ccccc1O (stereo not given), the Potency was inconclusive: 25.9 µM [inhibitor, single point]. With CCOc1ccc(C(CC(=O)Nc2cc(C)c(Cl)cc2OC)N2Cc3ccccc3C2=O)cc1OC (stereo not given) the Potency was inconclusive: 29.1 µM [inhibitor, single point]. In the case of COc1ccc(S(=O)(=O)Nc2c(NC3CCCCC3)c3ccccc3oc2=O)cc1OC, the Potency is reported as inconclusive: 25.9 µM [inhibitor, single point]. With CCCn1c(C)cc(=O)c2cc(NC(=O)c3ccccn3)ccc21 the Potency was active: 14.6 µM. With CC1=C(C(=O)Nc2ccccc2)C(c2ccc(C)o2)n2ncnc2N1 (stereo not given) the Potency was “inactive”. With COc1ccc(C=C(C(C)=O)C(=O)c2ccccc2)cc1 the Potency was inconclusive: 18.4 µM [inhibitor, single point]. In the case of CC1(C(=O)NS(=O)(=O)C2CC2)CCN(C(=O)c2ccccc2F)C1 (stereo not given), the Potency is reported as “inactive”. For COc1cccc(CNC(=O)CCCn2nc(C)n3c(cc4sccc43)c2=O)c1, the Potency was “inactive and inconclusive: 23.1 µM [inhibitor, single point]”. With COc1ccc(CCNC(=O)CC(c2ccccc2)c2cccc(C)c2O)cc1OC (stereo not given) the Potency was active: 9.2 µM. In the case of COc1ccc(-c2cc(C(=O)N3CCN(c4ccc(F)cc4)CC3)no2)cc1OC, the Potency is reported as inconclusive: 9.2 nM [inhibitor, full curve, poor fit] and inconclusive: 29.1 µM [inhibitor, single point]. With CCN1C(=O)[C@H]2[C@@H](c3ccc(-c4ccc(F)cc4)c(OC)c3)N[C@@](Cc3ccccc3)(C(=O)OC)[C@H]2C1=O the Potency was “inactive”. In the case of O=S(=O)(c1ccccc1F)N1CCC(c2nc3ccccc3[nH]2)CC1, the Potency is reported as inconclusive: 20.6 µM [inhibitor, partial curve]. For C/C(=N\NC(=S)Nc1ccccc1C)c1cc2ccccc2o1, the Potency was active: 5.17 µM. In the case of COc1ccc(Cn2ccc3nc(C)c(C(=O)NCc4ccc(OC)cc4OC)cc3c2=O)cc1, the Potency is reported as “inactive”. With COc1ccc(/C=C2\SC(=S)N(CCCC(=O)N3CCN(C)CC3)C2=O)cc1OC the Potency was “inactive”. With C=CCN(c1cccc(C(F)(F)F)c1)S(=O)(=O)c1cccc(C(=O)OCC(=O)NCCC)c1 the Potency was “inactive”. In the case of CC(C)OC(=O)Nc1ccc2c(c1)N(C(=O)N1CCN(C)CC1)c1ccccc1CC2, the Potency is reported as active: 13 µM. In the case of CN(CC(=O)Nc1cccc(F)c1)C(=O)c1ccccc1Cc1ccccc1, the Potency is reported as inconclusive: 29.1 µM [inhibitor, single point].
